Data on 28 compounds can be found in PubChem BioAssay AID2546 (National Center for Advancing Translational Sciences (NCATS), 2010).

The campaign covered roughly 310,000 compounds. About 11,000 (3.5%) were called active. Inconclusive results (about 8%) are left out. Calls come from the whole dose curve; as a rule, active = well fitted inhibition curve with a large enough effect; inconclusive = small, poorly fitted or top-dose-only effect, or effect the other way; inactive = flat fitted curve, though single readings scatter. The list shows a part of the results, in another mix than the full data. More than one record can exist for a structure, and the calls need not agree.
% is set by controls: 0 for no effect and ±100 for the full control effect; potency is the fitted concentration of half-maximal effect.

This experiment in a line: VP16 counterscreen qHTS for inhibitors of ROR gamma transcriptional activity.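 Note: Gal4-VP16 expression switched on by copper sulfate through the metallothionein promoter; nearly all actives have a fitted effect of over 50% in size.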 The following applies: Drosophila S2 Gal4-VP16 UAS-luciferase, luminescence, 20 h; series mostly up to 53.6 µM; activity, negative = inhibition: at the top concentration. The text has this: NIH Molecular Libraries Probe Production Network [MLPCN]
NIH Chemical Genomics Center [NCGC]
Assay Provider: Dan Littman, New York University
The retinoic acid-related orphan receptor (ROR) gamma is a transcription factor that has a central role in the differentiation of Th17 cells, a subset of T helper cells that secrete the inflammatory cytokines IL-17, IL-17F, and IL-22. Th17 cells have been implicated in graft versus host disease, autoimmune disease and asthma. ROR gamma is induced in naive T helper cells in the presence of TGF-beta combined with IL-6, IL-21, or IL-23, and thereafter directs the expression of the Th17 lineage cytokines. To identify nonspecific inhibitors, a Drosophila Schneider cell line was stably transfected with two vectors: a gene expressing a fusion of the Gal4 DNA binding domain and VP16 transactivation domain under the control of the metallothionine promoter and a Photinus luciferase reporter regulated by the Gal4 binding site enhancer, UAS. […] Small molecule inhibitors that inhibit components common to the RORgt and VP16 assays, such as the Gal4 DNA binding domain or the UAS luciferase reporter, will be active in both assays and thus scored as nonspecific.
For screening, 600 cells in 4 uL/well were dispensed into white solid 1536-well plates (Grenier) using a solenoid-based dispenser. Following transfer of 23 nL compound or DMSO vehicle by a pin tool, the plates were incubated 1 hr at ambient temperature, and 1 uL/well copper sulfate (700 uM final concentration) was added. The plates were centrifuged 15 s at 1000 RPM and incubated 20 hr at ambient temperature. After addition of 1.5 uL Photinus luciferase detection reagent, the plates were incubated 10 min at ambient temperature and then read by a ViewLux (Perkin Elmer) to detect luminescence.
(The purpose of a counterscreen is to sort out artefacts and off-target activity.)
Take `OC(c1ccccc1)(c1ccccc1)C1CCNCC1`: the “activity, negative = inhibition” value was inactive: -11.3% [at 17 µM].
For the compound `O=C1NC(=O)N(Cc2ccccc2)C(=O)/C1=C\C=C\c1ccco1`, the activity, negative = inhibition is inactive: -4.18% [at 10 µM].
Turning to `CC(=O)OC1C[C@H](O[C@@H]2C(O)C[C@H](O[C@@H]3C(O)C[C@@H](OC4CC[C@]5(C)C(CCC6C5CC(O)[C@@]5(C)C(C7=CC(=O)OC7)CC[C@@]65O)C4)OC3C)OC2C)O[C@H](C)[C@H]1O[C@H]1OC(CO)C(O)C(O)C1O` (stereo partly drawn), the “activity, negative = inhibition” value was inactive: -2.19%.
As to `O=C1C2CCN(CC2)C1(CO)CO`, the “activity, negative = inhibition” value was inactive: -13.9%.
Turning to `O=C1C(Cl)=C(Cl)C(=O)C(Cl)=C1Cl`, the “activity, negative = inhibition” value is inactive: -0.562%.
Still for that read-out and setting: the figure for `Cc1ccc2c(Cl)cc(Cl)c(O)c2n1` is inactive: -4.05%; for `CC(C)[C@@]1(NC(=O)[C@@H]2C[C@H]3c4cccc5[nH]cc(c45)C[C@@H]3N(C)C2)O[C@]2(O)[C@H]3CCCN3C(=O)[C@H](Cc3ccccc3)N2C1=O` it is inactive: -1.05% [at 17 µM]; for `CN(C)C(=O)Oc1ccc[n+](C)c1` it is inactive: -2.07%.
Take `CC(C)C[C@H]1C(=O)N2CCC[C@@H]2[C@]2(O)O[C@](NC(=O)[C@H]3C=C4c5cccc6[nH]c(Br)c(c56)C[C@H]4N(C)C3)(C(C)C)C(=O)N12`: the “activity, negative = inhibition” value was inactive: -9.73% [at 17 µM].
As to `Cc1ccc(N)c(N)c1`, the “activity, negative = inhibition” value was inactive: -4.82%.
Still for that read-out and setting: then `C=C(C)[C@H]1CN[C@H](C(=O)O)[C@@H]1CC(=O)O`, with inactive: 2.83%.
On to `C=C(C)CN1CC[C@]23c4c5ccc(O)c4O[C@H]2c2[nH]c4ccccc4c2C[C@@]3(O)C1C5`, for which the “activity, negative = inhibition” value is inactive: -20.3%.
For the compound `CO/C1=C\C(C)=C\[C@@H](C)[C@@H](O)[C@@H](C)C/C(C)=C/C=C\[C@H](OC)C([C@@H](C)[C@@H](O)[C@H](C)[C@@]2(O)C[C@@H](O)[C@H](C)C(C(C)C)O2)OC1=O` (stereo partly drawn), the activity, negative = inhibition is inactive: -0.652% [at 1.91 µM].
On the same count and under the same terms, the figure for `CC1(C)C(=O)C=C[C@]2(C)[C@H]3CC[C@@]4(C)[C@H](c5ccoc5)OC(=O)[C@H]5O[C@]54[C@]3(C)[C@H](O)C[C@@H]12` is inactive: -15.3%.
As to `CCCC/C(C)=C/[C@@H](NP(=O)(c1ccccc1)c1ccccc1)c1ccccc1`, the “activity, negative = inhibition” value is inactive: -14%.
Consider `COc1ccc(CN2C(=O)NC(=O)/C(=C\c3ccc(OC)c(OC)c3OC)C2=O)cc1`, for which the “activity, negative = inhibition” value was inactive: 18.8%.
In the case of `O=C/C=C/c1ccccc1`, the activity, negative = inhibition entry is “inactive”.
`CC(=O)N1CCN(c2ccc(OC[C@H]3CO[C@](Cn4ccnc4)(c4ccc(Cl)cc4Cl)O3)cc2)CC1`: the activity, negative = inhibition result is “inactive”.
For the compound `O=[N+]([O-])c1ccc(C2[C@H]3C(c4ccccc4)=NC4(CCCC4)N23)cc1` (stereo partly drawn), the “activity, negative = inhibition” value was inactive: -3.95%.
As for `O=C(c1ccc(Cl)cc1)C1CCCN(Cc2ccc3ncccc3c2)C1` (stereo not drawn), the Potency was active: 7.08 µM.
For the compound `Cc1cc(SCc2sc(-c3ccc(C(F)(F)F)c(F)c3)nc2C)ccc1OCC(=O)O`, the “activity, negative = inhibition” value is inactive: 12.8%.
Regarding `O=C1/C(=C\c2ccncc2)N2CCC1CC2`, the “activity, negative = inhibition” value was inactive: 1.3%.
For the compound `O=C1NC(=O)N(CCC2=CCCCC2)C(=O)/C1=C/c1cccs1`, the “activity, negative = inhibition” value is inactive: 6.43%.
On to `CC[C@@H]1CN2CCc3cc(OC)c(OC)cc3[C@@H]2C[C@@H]1C[C@H]1NCCc2cc(OC)c(OC)cc21`, for which the “activity, negative = inhibition” value was inactive: -94.5%.
On to `S=C=Nc1cccc2ccccc12`, for which the Potency is active: 12.6 µM.
`O=C(NC(=O)c1c(F)cccc1F)Nc1cc(Cl)c(OC(F)(F)C(F)C(F)(F)F)cc1Cl` (stereo not drawn): the “activity, negative = inhibition” value was inactive: -0.645%.
On the same count and under the same terms, then `O=C(Nc1ccc(Oc2ccc(Cl)cc2)c(Cl)c1)c1cc(I)cc(I)c1O`, with inactive: 0.246%; and `Oc1ccc2c3c1O[C@H]1c4[nH]c5ccccc5c4C[C@@]4(O)C(C2)N(CC2CC2)CC[C@]314`, with inactive: -0.0263%.
